Data taken from PubChem BioAssay AID504332 (National Center for Advancing Translational Sciences (NCATS), 2011).
About 31,000 (8.9%) of roughly 350,000 compounds were called active. The inconclusive results got no clear call from the source; some entries with a clear call stand among them for comparison. The call rests on the fitted dose curve; in most records, active means well fitted inhibition curve with a large enough effect; inconclusive means small, poorly fitted or top-dose-only effect; inactive means no such curve, though single readings can be large or run the other way. Potencies of inconclusive entries are doubtful fits and often do not repeat.

What follows are compounds tested against Histone-lysine N-methyltransferase EHMT2 (Homo sapiens) (UniProt Q96KQ7) (assay: qHTS Assay for Inhibitors of Histone Lysine Methyltransferase G9a). Settings: G9a H3K9 monomethylation, AlphaScreen, 2 h; activity, negative = inhibition: at 59 µM (top of the series) unless noted.
Outline: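 Compounds were preincubated with 20 nM G9a for 15 min, after which biotinylated H3K9 peptide (500 nM) and SAM (20 uM) started a 2 h room-temperature reaction. Monomethylated product was quantified by antibody-based AlphaScreen chemiluminescence.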
Further: nearly all actives have a fitted effect of over 75% in size.
On the % scale 0 is the no-effect control and ±100 the full control effect; potency means the concentration at half of the fitted maximal effect; tags describe the fitted curve by direction and shape.

Chain of UniProt Q96KQ7 (Q96KQ7 whole entry, looked up): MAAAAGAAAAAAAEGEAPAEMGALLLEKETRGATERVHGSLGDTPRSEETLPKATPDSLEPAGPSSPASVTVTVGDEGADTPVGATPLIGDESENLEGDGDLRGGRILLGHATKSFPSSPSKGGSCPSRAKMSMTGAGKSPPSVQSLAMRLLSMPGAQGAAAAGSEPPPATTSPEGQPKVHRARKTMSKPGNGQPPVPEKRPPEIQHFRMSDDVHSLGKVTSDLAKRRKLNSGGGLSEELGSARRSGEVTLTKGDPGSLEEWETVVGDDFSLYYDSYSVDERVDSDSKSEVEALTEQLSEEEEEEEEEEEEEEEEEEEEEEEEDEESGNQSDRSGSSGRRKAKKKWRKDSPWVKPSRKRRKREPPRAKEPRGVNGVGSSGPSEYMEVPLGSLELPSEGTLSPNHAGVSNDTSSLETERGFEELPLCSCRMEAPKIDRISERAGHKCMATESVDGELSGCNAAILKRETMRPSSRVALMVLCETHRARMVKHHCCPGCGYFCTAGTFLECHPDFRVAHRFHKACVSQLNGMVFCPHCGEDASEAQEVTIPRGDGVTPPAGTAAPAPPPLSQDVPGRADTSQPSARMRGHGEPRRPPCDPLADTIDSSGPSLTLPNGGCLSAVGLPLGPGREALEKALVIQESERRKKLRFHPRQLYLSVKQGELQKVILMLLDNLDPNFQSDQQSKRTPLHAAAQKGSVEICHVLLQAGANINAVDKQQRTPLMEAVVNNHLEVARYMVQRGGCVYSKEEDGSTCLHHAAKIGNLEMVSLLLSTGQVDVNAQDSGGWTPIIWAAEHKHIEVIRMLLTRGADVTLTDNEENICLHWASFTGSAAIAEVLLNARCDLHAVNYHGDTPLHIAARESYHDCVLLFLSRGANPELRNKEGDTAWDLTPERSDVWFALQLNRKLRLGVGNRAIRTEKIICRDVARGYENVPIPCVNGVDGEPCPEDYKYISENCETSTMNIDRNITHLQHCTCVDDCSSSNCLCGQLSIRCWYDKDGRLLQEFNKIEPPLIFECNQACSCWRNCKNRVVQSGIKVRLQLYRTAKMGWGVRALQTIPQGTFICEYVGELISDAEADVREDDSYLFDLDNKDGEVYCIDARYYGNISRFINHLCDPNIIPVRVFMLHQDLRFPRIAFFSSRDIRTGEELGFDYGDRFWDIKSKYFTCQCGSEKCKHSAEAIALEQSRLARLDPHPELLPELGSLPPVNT

Row | Compound | Potency | activity, negative = inhibition
1 | CNC(=S)NNc1nc(C)cc(C)n1 | active: 1.26 µM | 
2 | O=C(CCl)Nc1ccc(Sc2ccc(NC(=O)CCl)cc2)cc1 | inconclusive: 56.2 µM [inhibitor, partial curve, poor fit] | 
3 | CCOC(=O)c1c(NC(=O)c2cc(-c3ccccc3OC)on2)sc(C)c1C | active: 2.82 µM | 
4 | O=C(O)c1ccccc1CSc1ncccc1C(=O)O | active: 20 µM | 
5 | C/C(=N\Nc1ccc(S(N)(=O)=O)cc1[N+](=O)[O-])c1cccs1 | active: 25.1 µM | 
6 | O=C1C=C(c2ccc(O)cc2)C[C@@H](c2ccc3c(c2)OCO3)C1 |  | inactive: 14.6% [at 0.501 µM]
7 | CCCN(CCC)Cc1cc2ccccc2c2c1COC2 | inconclusive: 7.94 µM [inhibitor, full curve, poor fit] | 
8 | O=C1OCCN1C(=O)[C@H]1[C@H](c2ccc([N+](=O)[O-])cc2)C(c2cccc(Cl)c2)=NN1c1ccccc1 | inconclusive: 70.8 µM [inhibitor, single point] | 
9 | O=C(NC(=S)NCC1CCCO1)c1ccc(Br)o1 (stereo not drawn) |  | inconclusive: -63.2% [inhibitor] [at 102 µM]
10 | O=[N+]([O-])c1ccccc1/C=N\N1CCN(c2ccccc2)CC1 | active: 10 µM | 
11 | CC(CCC(=O)Nc1nncs1)C(=O)O (stereo not drawn) | inactive | 
12 | Cn1cccc1C1Nc2ccccc2NC2=C1C(=O)CC(C)(C)C2 (stereo not drawn) | inconclusive: 89.1 µM [inhibitor, partial curve, poor fit] | 
13 | Nc1nnc(SCC(=O)Nc2sc3c(c2C(=O)c2ccccc2)CCCC3)s1 | inconclusive: 28.2 µM [inhibitor, single point] | 
14 | CCOC(=O)c1c(NC(=O)CS(=O)(=O)c2cn(CC)c3ccccc23)sc2c1CCCCC2 | inconclusive: 70.8 µM [inhibitor, single point] | 
15 | Nc1nc(NC(=O)Cc2ccccc2)nn1-c1ccccc1 |  | inactive: -0.0171% [at 12.7 µM]
16 | Cc1ccc(-c2cc(N)nc(-c3ccccc3)c2)cc1 | inactive | 
17 | CC(=O)Oc1ccc2nc(-c3ccc(Br)o3)oc(=O)c2c1 | inconclusive: 79.4 µM [inhibitor, single point] | 
18 | C=CCn1c(SC)nc2sc3c(c2c1=O)CCc1ccccc1-3 | inconclusive: 22.4 µM [inhibitor, single point] | 
19 | COc1ccc(S(=O)(=O)Oc2c(OC)cc(C(=S)N3CCOCC3)cc2OC)cc1 | active: 22.4 µM | 
20 | COc1cccc(NCc2cc3c(C(C)(C)C)nn(-c4ccccc4)c3[nH]c2=O)c1 | active: 25.1 µM | 
21 | S=c1[nH]nc(-c2cccs2)n1Cc1ccccc1 | inconclusive: 3.55 µM [inhibitor, single point] | 
22 | COc1ccc(Nc2nc(C(=O)NCc3ccco3)cs2)cc1 |  | inconclusive: -73.7% [inhibitor]
23 | Cc1cccc(-c2cc(C(=O)NCc3ccccn3)c3ccccc3n2)c1 | inactive | 
24 | O=C(CSc1ncccn1)NC1CCS(=O)(=O)C1 (stereo not drawn) | inactive | 

Row | Compound | Potency | activity, negative = inhibition
25 | O=C(NNC(=O)c1cccc(S(=O)(=O)N2CCc3ccccc32)c1)c1ccccc1 | inactive | 
26 | COc1ccc(F)cc1S(=O)(=O)Nc1cc2c3c(c1)CCC(=O)N3CCC2 |  | inactive: 8.57% [at 0.501 µM]
27 | O=C(c1cc2ccccc2o1)N1CCN(c2ccccc2Cl)CC1 | inconclusive: 35.5 µM [inhibitor, partial curve] | 
28 | COc1ccc(Nc2nc(-c3sc(C)nc3C)cs2)c(OC)c1 | active: 44.7 µM | 
29 | Cc1cccc(-n2ccnc2SCC(=O)Nc2cccc3ccccc23)c1 | active: 12.6 µM | 
30 | O=C(CCN1CCN(C(=O)c2ccccc2)CC1)c1ccc(Br)cc1 | active: 31.6 µM | 
31 | N#Cc1ccccc1CSCCNC(=O)Cc1c(F)cccc1Cl | inactive | 
32 | CCCN(CCC)C1=N/C(=C\c2ccco2)C(=O)N1c1ccccc1 | inconclusive: 12.6 µM [inhibitor, partial curve, poor fit] | 
33 | O=C(NCC(=O)N1CCN(S(=O)(=O)c2cccs2)CC1)c1ccc(Cl)cc1 | inactive | 
34 | CC1=NN(C(N)=S)C(=O)C1N=Nc1ccccc1 (stereo not drawn) | inactive | 
35 | CSCC[C@H](NS(=O)(=O)c1ccc(C)cc1)C(=O)N1CCC(C(=O)N[C@@H](Cc2ccccc2)C(=O)O)CC1 | inconclusive: 89.1 µM [inhibitor, single point] | 
36 | COc1cc(C2C(N3C(=O)c4ccccc4C3=O)C(=O)N2c2cccc(C)c2)cc(OC)c1OC (stereo not drawn) | inactive | 
37 | CC1CCN(C(=O)COC(=O)c2c[nH]c3ccccc23)CC1 | inconclusive: 50.1 µM [inhibitor, partial curve] | 
38 | O=C(NO)C1CC2C=CC1C2 (stereo not drawn) | inconclusive: 25.1 µM [inhibitor, single point] | 
39 | CCOC(=O)N1CCN(CC(=O)Nc2ccc(OC)cc2)CC1 | inactive | 
40 | O/C(=C\c1ccc2ccccc2n1)c1ccc(O)cc1O | inconclusive: 39.8 µM [inhibitor, full curve] | 
41 | COCCCN(C(=O)C(C)Oc1ccc(Br)cc1)c1c(N)n(Cc2ccccc2)c(=O)[nH]c1=O (stereo not drawn) | inconclusive: 63.1 µM [inhibitor, partial curve, poor fit] | 
42 | CC1(C)CC(=O)C(Br)=C(O)C1 | inconclusive: 56.2 µM [inhibitor, partial curve, poor fit] | 
43 | CN1CCSc2ccc(C(=O)NCc3cccc(Br)c3)cc21 | inactive | 
44 | Cc1cc(C)cc(OCCSc2nc3ccc(NC(=O)c4ccc5c(c4)OCO5)cc3s2)c1 | inactive | 
45 | COC(=O)c1c(C)[nH]c(C(=O)OCC(=O)N(CC(C)C)c2c(N)n(Cc3ccccc3)c(=O)[nH]c2=O)c1C | inconclusive: 89.1 µM [inhibitor, single point] | 
46 | CN(CC(=O)Nc1c(Cl)cccc1Cl)C(=O)c1ccc2nc[nH]c2c1 | inconclusive: 20 µM [inhibitor, partial curve, poor fit] | 
47 | Cc1ccc(C(=O)N2N=C(c3ccccc3O)CC2c2ccccc2)cc1 (stereo not drawn) | inactive | 
48 | Cc1ccc(CNC(=O)C(=O)NCC(c2cccs2)S(=O)(=O)c2ccc(C)cc2)cc1 (stereo not drawn) | inconclusive: 3.16 µM [inhibitor, single point] | 
